44 molecules from paper PMC4336329 (PLoS ONE, 2015) can be followed below.

The campaign covered roughly 310,000 compounds. About 2,200 (0.71%) showed an effect of 50% or more. The effect is printed as a negative number. Some of the results follow.

The target of the experiment is human ether-à-go-go-related gene (hERG) potassium channel (human, UniProt Q12809). Briefly: primary screen, population patch clamp on CHO cells stably expressing hERG.
human ether-à-go-go-related gene (hERG) potassium channel, sequence (Q12809 whole entry, looked up): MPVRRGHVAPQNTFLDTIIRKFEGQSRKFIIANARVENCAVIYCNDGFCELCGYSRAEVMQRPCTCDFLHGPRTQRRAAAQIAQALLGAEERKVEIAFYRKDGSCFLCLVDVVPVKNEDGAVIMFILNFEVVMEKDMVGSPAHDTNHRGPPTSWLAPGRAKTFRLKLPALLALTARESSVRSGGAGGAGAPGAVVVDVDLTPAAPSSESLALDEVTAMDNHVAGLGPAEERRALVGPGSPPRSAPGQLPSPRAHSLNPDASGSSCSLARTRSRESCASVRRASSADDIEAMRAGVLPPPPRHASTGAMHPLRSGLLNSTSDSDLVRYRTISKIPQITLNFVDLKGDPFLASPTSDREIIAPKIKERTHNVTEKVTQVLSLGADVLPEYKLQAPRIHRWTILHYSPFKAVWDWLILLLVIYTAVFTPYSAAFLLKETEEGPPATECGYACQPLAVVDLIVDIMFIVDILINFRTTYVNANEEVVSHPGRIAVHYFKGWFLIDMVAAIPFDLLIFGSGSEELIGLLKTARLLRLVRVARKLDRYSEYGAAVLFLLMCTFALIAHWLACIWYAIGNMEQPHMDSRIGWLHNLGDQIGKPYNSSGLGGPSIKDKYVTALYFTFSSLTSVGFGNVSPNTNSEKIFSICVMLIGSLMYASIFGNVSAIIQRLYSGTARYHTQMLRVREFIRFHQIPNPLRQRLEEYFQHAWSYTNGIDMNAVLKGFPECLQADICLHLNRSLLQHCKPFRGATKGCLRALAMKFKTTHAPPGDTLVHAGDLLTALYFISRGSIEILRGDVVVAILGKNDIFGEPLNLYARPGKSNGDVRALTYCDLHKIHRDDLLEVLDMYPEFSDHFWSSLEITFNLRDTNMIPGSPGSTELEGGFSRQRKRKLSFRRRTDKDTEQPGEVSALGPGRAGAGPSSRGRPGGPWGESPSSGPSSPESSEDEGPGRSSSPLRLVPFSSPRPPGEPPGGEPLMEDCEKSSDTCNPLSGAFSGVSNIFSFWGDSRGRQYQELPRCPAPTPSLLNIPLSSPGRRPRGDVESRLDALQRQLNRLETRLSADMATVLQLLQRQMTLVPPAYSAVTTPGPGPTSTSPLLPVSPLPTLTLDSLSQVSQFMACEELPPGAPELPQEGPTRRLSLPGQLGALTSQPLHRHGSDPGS
Turning to `Cc1cc(C(=O)N2CCCC(N3CCN(c4cccc(Cl)c4)CC3)C2)nn1C` (centres unmarked), the “hERG current change (%, negative = inhibition) at 1uM” value is reported as -3.76%.

As to `O=C(Nc1ccc2c3c(cccc13)CC2)c1ccco1`, the “hERG current change (%, negative = inhibition) at 1uM” value came to 0.275%.

With `Cc1ccc2c(Cl)c(C(=O)Nc3cc(C)on3)sc2c1`, the “hERG current change (%, negative = inhibition) at 1uM” value came to 9.53%.

Consider `CCCCNC(=O)CSc1nc2ccccc2c(=O)n1C1CCCC1`, for which the “hERG current change (%, negative = inhibition) at 1uM” value is -3.19%.

For `COC(=O)c1nc(NC(=S)NC(=O)c2cccs2)sc1C`, the “hERG current change (%, negative = inhibition) at 1uM” value is recorded as 14.7%.

For `CCn1nc(NC(=O)C(C)C)c2cc3cccc(C)c3nc21`, the “hERG current change (%, negative = inhibition) at 1uM” value came out at 15.9%.

For the molecule `CC(=O)N1CN(C2CC(C)(C)NC(C)(C)C2)Cc2c1sc1c2CCCC1`, the “hERG current change (%, negative = inhibition) at 1uM” value is 14.2%.

For the molecule `S=C(c1ccc(-c2ccc(Br)cc2)o1)N1CCOCC1`, the “hERG current change (%, negative = inhibition) at 1uM” value was 7.21%.

`O=C1CCCCN1CCc1c[nH]c2ccccc12`: the “hERG current change (%, negative = inhibition) at 1uM” value is 12%.

`O=C(CCc1ccccc1)N=C1SC2CS(=O)(=O)CC2N1c1ccc(F)cc1` (centres unmarked): the “hERG current change (%, negative = inhibition) at 1uM” value is 5.22%.

As for `CC(=O)Nc1ccc(NCc2ccc(C)s2)cc1`, the “hERG current change (%, negative = inhibition) at 1uM” value turned out to be 2.48%.

Take `COc1ccccc1NC(=O)CSc1nnc(NC(=O)C2CCC2)s1`: the “hERG current change (%, negative = inhibition) at 1uM” value is 14.8%.

In the case of `Cc1ccc(OCC(=O)NCC(=O)Nc2ccc(F)cc2)c([N+](=O)[O-])n1`, the “hERG current change (%, negative = inhibition) at 1uM” value is recorded as -18.1%.

On to `CCc1ccccc1NC(=O)CCc1c(C)nc(SC)nc1C`, for which the “hERG current change (%, negative = inhibition) at 1uM” value stood at 15.5%.

For the molecule `O=C(NCc1ccccc1Cl)C(=O)c1cn(CC(=O)N2CCOCC2)c2ccccc12`, the “hERG current change (%, negative = inhibition) at 1uM” value is listed as 13.1%.

Regarding `O=C(CCCCCl)Nc1c2c(nc3ccccc13)CCC2`, the “hERG current change (%, negative = inhibition) at 1uM” value was determined as 2.02%.

Turning to `CC(N=C(NC#N)Nc1ccncc1)C(C)(C)C` (centres unmarked), the “hERG current change (%, negative = inhibition) at 1uM” value is -0.576%.

As to `COc1ccc(CCNc2nc(-c3ccccn3)cs2)cc1OC`, the “hERG current change (%, negative = inhibition) at 1uM” value stood at 17.7%.

As for `Cc1cc([N+](=O)[O-])c2c(c1C)C1C=CCC1C(c1ccccn1)N2` (centres unmarked), the “hERG current change (%, negative = inhibition) at 1uM” value was 17.4%.

Consider `CCCCN1C(C(=O)Nc2ncccn2)=C(O)c2ccccc2S1(=O)=O`, for which the “hERG current change (%, negative = inhibition) at 1uM” value came to 11.6%.

On to `CCn1c(CNC(=O)c2ccco2)nnc1SCC(=O)Nc1ccccc1Cl`, for which the “hERG current change (%, negative = inhibition) at 1uM” value was 9.73%.

Take `COC(=O)C1=C(NC(=O)c2ccc(C)c(C)c2)CCS1`: the “hERG current change (%, negative = inhibition) at 1uM” value was 23.7%.

`CC1(C)SC(=S)N(/N=C/c2cccnc2)C1N(O)C(=O)NC1CCCCC1` (centres unmarked): the “hERG current change (%, negative = inhibition) at 1uM” value came out at 11.3%.

Regarding `CCOC(=O)c1ccc(-c2ccc(CO)o2)cc1`, the “hERG current change (%, negative = inhibition) at 1uM” value worked out at 8.15%.

Consider `Cc1cc(C)n(-c2ccc(C(=O)Oc3ccc4c(c3)OCO4)cc2)n1`, for which the “hERG current change (%, negative = inhibition) at 1uM” value is 6.44%.

On to `COc1ccc(CC(=O)Nc2cccc(S(=O)(=O)N3CCCCCC3)c2)cc1OC`, for which the “hERG current change (%, negative = inhibition) at 1uM” value turned out to be 6.49%.

`CC(=O)Nc1sc2c(c1C(=O)N1CCOCC1)CCCCC2`: the “hERG current change (%, negative = inhibition) at 1uM” value is given as 14.4%.

`CC1=NN(C(=O)c2ccccc2Cl)C(O)(c2ccccc2)C1` (centres unmarked): the “hERG current change (%, negative = inhibition) at 1uM” value is listed as 14%.

Regarding `Cc1noc(/C=C/c2cccs2)c1S(=O)(=O)N1CCC(C(=O)NCCCN2CCCC(C)C2)CC1` (centres unmarked), the “hERG current change (%, negative = inhibition) at 1uM” value is reported as 7.57%.

Regarding `Cc1ccc(C(=O)C2CCN(C(=S)NCCCOC(C)C)CC2)cc1`, the “hERG current change (%, negative = inhibition) at 1uM” value came out at 10.3%.

Consider `CCOC(=O)/C(=N\O)C1=NC(C)(C)Cc2ccccc21`, for which the “hERG current change (%, negative = inhibition) at 1uM” value is reported as 11.2%.

As to `COc1ccccc1C(=O)NC(=O)CSc1nncn1C(C)C`, the “hERG current change (%, negative = inhibition) at 1uM” value was 3.88%.

`COc1ccccc1-n1c(=O)c(C#N)c(-c2ccc([N+](=O)[O-])cc2)c2cc(C(=O)c3cc(F)ccc3O)cnc21`: the “hERG current change (%, negative = inhibition) at 1uM” value was found to be 10.6%.

For the molecule `COC(=O)c1cc(COC(=O)c2ccc3ccccc3n2)oc1C`, the “hERG current change (%, negative = inhibition) at 1uM” value was 13.4%.

Take `CCOC(=O)c1c(NC(=O)COC(=O)c2nccnc2N)sc(C(=O)N(C)C)c1C`: the “hERG current change (%, negative = inhibition) at 1uM” value is listed as 11.8%.

With `O=C(OCc1ccc(Cl)cc1Cl)c1ccncc1`, the “hERG current change (%, negative = inhibition) at 1uM” value worked out at 3.9%.

For the molecule `C=CCSc1nc(N2CCOCC2)c2c(c1C#N)CC(C)(C)N(C)C2`, the “hERG current change (%, negative = inhibition) at 1uM” value turned out to be 9.38%.

Turning to `CCOc1cc(/C=N/n2cnnc2)ccc1OS(=O)(=O)c1ccc(C)cc1`, the “hERG current change (%, negative = inhibition) at 1uM” value is -10.7%.

For `O=C(CSc1ccc(F)cc1)Nc1nnc(-c2ccco2)o1`, the “hERG current change (%, negative = inhibition) at 1uM” value was determined as 14.3%.

For `Cc1cc(C)c(CN2CCC(N3CCC(C(=O)NCC4CCCO4)CC3)CC2)cc1C` (centres unmarked), the “hERG current change (%, negative = inhibition) at 1uM” value is 5.86%.

As to `CCCN(C(=O)c1cccc(S(=O)(=O)N2CCN(C)CC2)c1)c1c(N)n(Cc2ccccc2)c(=O)[nH]c1=O`, the “hERG current change (%, negative = inhibition) at 1uM” value came out at 7.09%.

In the case of `O=C(C1CCN(S(=O)(=O)c2cnc[nH]2)CC1)N1CCn2c1nc1ccccc12`, the “hERG current change (%, negative = inhibition) at 1uM” value stood at 0.843%.

Take `COc1ccc(-c2nsc(C(=O)N(c3ccc(F)cc3)C(C(=O)NC3CCCC3)c3ccc(OC)cc3)c2N)cc1` (centres unmarked): the “hERG current change (%, negative = inhibition) at 1uM” value worked out at 8.11%.

Turning to `Cc1ccc(NC(=O)c2c(-c3ccccc3)noc2C)nc1`, the “hERG current change (%, negative = inhibition) at 1uM” value is recorded as 13.6%.
